Measurements: patent US20250043004A1 (Janssen / Centocor, published 2025)

How the values were obtained:
CD28 [1] = target: T1, CD28 (human, UniProt P10747 19-220); test: flow cytometry, human pan T cells
T1 construct: whole, on cells; On human pan T cells and on H929 myeloma cells; the assay field says which; also called Cluster of Differentiation 28

CD28 [2] = target: T1, CD28; test: flow cytometry, H929 cells (BCMA+, CD28+); whole-cell EC50, antibody has BCMA and CD28 arms
BCMA = target: T2, BCMA (human, UniProt Q02223 1-184); test: as above
T2 construct: whole, on cells; On NCI-H929 myeloma cells, which also carry CD28; also called B-cell maturation antigen; TNFRSF17
T2 sequence (looked up): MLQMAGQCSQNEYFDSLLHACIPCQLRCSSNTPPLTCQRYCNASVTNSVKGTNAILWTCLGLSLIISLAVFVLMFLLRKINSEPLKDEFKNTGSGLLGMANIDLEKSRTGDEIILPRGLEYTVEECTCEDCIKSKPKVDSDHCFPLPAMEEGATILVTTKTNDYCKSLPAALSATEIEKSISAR

Measured: EC50

B1: VB28B4 (other)
heavy 1: QVQLQQWGAGLLKPSETLSLTCAVYGGSFSGYYWNWIRQPPGKGLQWIGEINHSGTTNYNPSLKSRVTISVDTSKNQFSLKLSSLTAADTAVYYCARGEAVALYWGQGTLVTVSSASTKGPSVFPLAPSSKSTSGGTAALGCLVKDYFPEPVTVSWNSGALTSGVHTFPAVLQSSGLYSLSSVVTVPSSSLGTQTYICNVNHKPSNTKVDKKVEPKSCDKTHTCPPCPAPEAAGGPSVFLFPPKPKDTLMISRTPEVTCVVVSVSHEDPEVKFNWYVDGVEVHNAKTKPREEQYNSTYRVVSVLTVLHQDWLNGKEYKCKVSNKALPAPIEKTISKAKGQPREPQVYTLPPSREEMTKNQVSLWCLVKGFYPSDIAVEWESNGQPENNYKTTPPVLDSDGSFFLYSKLTVDKSRWQQGNVFSCSVMHEALHNHYTQKSLSLSPGGGSEGKSSGSGSESKSTGGSDIQMTQSPSSLSASVGDRVTITCRSSQSLVHSSGNTYLHWYQQKPGKAPKFLIYKVSNRFSGVPSRFSGSGSGTDFTLTISSLQPEDFATYYCSQSTHVPFTFGQGTKLEIKGGSEGKSSGSGSESKSTGGSQVQLQESGPGLVKPSETLSLTCTVSGYSITSGYFWNWIRQPPGKGLEWIGYISYDGSNNYNPSLKSRVTISRDTSKNQFSLKLSSVTAADTAVYYCASPSPGTGYAVDYWGQGTLVTVSS
light 1: EIVMTQSPATLSVSPGERATLSCRASQSVNSNLAWYQQKPGQAPRLLIYGASARATGIPARFSGSGSGTEFTLTISSLQSEDFAVYYCQQYYNWPLTFGGGTKVEIKRTVAAPSVFIFPPSDEQLKSGTASVVCLLNNFYPREAKVQWKVDNALQSGNSQESVTEQDSKDSTYSLSSTLTLSKADYEKHKVYACEVTHQGLSSPVTKSFNRGEC
heavy 2: QVQLQQWGAGLLKPSETLSLTCAVYGGSFSGYYWNWIRQPPGKGLQWIGEINHSGTTNYNPSLKSRVTISVDTSKNQFSLKLSSLTAADTAVYYCARGEAVALYWGQGTLVTVSSASTKGPSVFPLAPSSKSTSGGTAALGCLVKDYFPEPVTVSWNSGALTSGVHTFPAVLQSSGLYSLSSVVTVPSSSLGTQTYICNVNHKPSNTKVDKKVEPKSCDKTHTCPPCPAPEAAGGPSVFLFPPKPKDTLMISRTPEVTCVVVSVSHEDPEVKFNWYVDGVEVHNAKTKPREEQYNSTYRVVSVLTVLHQDWLNGKEYKCKVSNKALPAPIEKTISKAKGQPREPQVYTLPPSREEMTKNQVSLSCAVKGFYPSDIAVEWESNGQPENNYKTTPPVLDSDGSFFLVSKLTVDKSRWQQGNVFSCSVMHEALHNRFTQKSLSLSPGGGSEGKSSGSGSESKSTGGSEIVLTQSPGTLSLSPGERATLSCRASQSISSSFLTWYQQKPGQAPRLLIYGASSRATGIPDRFSGGGSGTDFTLTISRLEPEDFAVYYCQHYGSSPMYTFGQGTKLEIKGGSEGKSSGSGSESKSTGGS[about 100 residues not spelt out]DEGYSSGHYYGMDVWGQGTTVTVSS
light 2: EIVMTQSPATLSVSPGERATLSCRASQSVNSNLAWYQQKPGQAPRLLIYGASARATGIPARFSGSGSGTEFTLTISSLQSEDFAVYYCQQYYNWPLTFGGGTKVEIKRTVAAPSVFIFPPSDEQLKSGTASVVCLLNNFYPREAKVQWKVDNALQSGNSQESVTEQDSKDSTYSLSSTLTLSKADYEKHKVYACEVTHQGLSSPVTKSFNRGEC
notes: only variable domains are tied; also called Vβ28B4
0.06 mg/L: all assays above
